Screen size: about 420,000 compounds; about 50,000 (12%) were called active. The shares of active, inactive and inconclusive entries below differ from those in the screen. Calls come from the whole dose curve; as a rule, active = well fitted inhibition curve with a large enough effect; inconclusive = small, poorly fitted or top-dose-only effect; inactive = flat fitted curve, though single readings scatter. No potency is given beside an inconclusive call; the fits are too rough.
assay: qHTS for Inhibitors of human tyrosyl-DNA phosphodiesterase 1 (TDP1): qHTS in cells in presence of CPT; conditions: chicken DT40 Tdp1-/-;hTDP1 cells + 20 nM CPT, ATP luminescence, 48 h; activity change, negative = growth inhibition: at 46.2 µM (top of the series) unless noted; note: nearly all actives have a fitted effect of over 55% in size
Method in brief: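 Chicken DT40 Tdp1-/- cells stably complemented with human TDP1 were seeded at 400 cells/well in medium containing 20 nM camptothecin, exposed to pin-transferred compounds, and grown at 37 °C for at least 48 hr. Viability was read as ATP luminescence.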
% is set by controls: 0 for no effect and ±100 for the full control effect; potency is the fitted concentration of half-maximal effect; tags give direction and shape of the fitted curve.

Row | SMILES | activity change, negative = growth inhibition | Potency
1 | Cc1cc(C)nc(-n2ncc3c2CC(C)CC3=O)n1 (stereo unspecified) | inactive: -7.34% | 
2 | Cc1ccc(-c2csc(NC(=O)CN3CC(C)OC(C)C3)n2)cc1 (stereo unspecified) |  | inconclusive [inhibitor, single point]
3 | Cc1cccc(NC(=S)NCCc2ccccn2)c1 | inactive: -10.1% | 
4 | COCCNC(=O)c1cc(-c2ccccc2C)n(CC2CC(c3cccc([N+](=O)[O-])c3)=NO2)n1 (stereo unspecified) |  | inconclusive [inhibitor, single point]
5 | C=CCN(CC=C)C(=S)NC(=O)c1ccc(OC)cc1 |  | active: 14.6 µM
6 | Cc1ccccc1Cn1cnc2c(cnn2C(C)(C)C)c1=O |  | inconclusive [inhibitor, single point]
7 | CCCC12CN3CC(C)(CN(C1)C3c1cn(C)c3ccccc13)C2=O (stereo unspecified) |  | inconclusive [inhibitor, single point]
8 | COc1ccc(C(O)C(CN2CCOCC2)c2ccccc2)cc1 (stereo unspecified) | inactive: -21.4% | 
9 | CS(=O)(=O)c1sc2nc(-c3ccccc3)cc(-c3ccccc3)c2c1N |  | inconclusive [inhibitor, single point]
10 | COCCNc1nc(NCc2ccccc2)nc2ccsc12 |  | active: 20.6 µM
11 | Cc1cc2ncn(/N=C/c3ccc([N+](=O)[O-])s3)c2cc1C |  | inconclusive [inhibitor, single point]
12 | CCC(C(=O)NC1CCCCCC1)n1nc(C)c2c(C)n(-c3ccccc3)nc2c1=O (stereo unspecified) |  | inconclusive [inhibitor, single point]
13 | CC(=O)Nc1ccc(S(=O)(=O)Nc2ccc(NC(=O)c3ccco3)cc2)cc1 |  | inconclusive [inhibitor, single point]
14 | COc1ccc(C2C3=C(CC(c4ccco4)CC3=O)Nc3ccccc3N2C(C)=O)cc1 (stereo unspecified) | inactive: -19.6% | 
15 | COc1ccc(S(=O)(=O)Cc2ccc(C(=O)NCCc3cc(OC)ccc3OC)o2)cc1 |  | inconclusive [inhibitor, single point]
16 | COc1ccc(-c2nc(CS(=O)CC(=O)NCc3ccc(Cl)cc3)c(C)o2)cc1OC (stereo unspecified) |  | inconclusive [inhibitor, single point]
17 | CNc1ccc(/C=C2\C=Cc3ccccc32)cc1OC | inactive: -4.55% | 
18 | CC1Cc2ccccc2N1C(=O)C1CC(=O)N(c2ccccc2)C1 (stereo unspecified) | inactive: -16.4% | 
19 | CCCNC(=O)C1(C)CCCN(C(=O)c2ccc(C)c(F)c2)C1 (stereo unspecified) | inactive: -18.8% | 
20 | Cc1ccc(C)c(Cn2c(CN(C)Cc3ccccc3)nc3c2c(=O)n(C)c(=O)n3C)c1 |  | active: 18.4 µM
21 | O=C(Nc1ccccc1)N1CCCC2(CCN(C(=O)c3csnn3)CC2)C1 | inactive: 13.7% | 
22 | CC(C)NCC(O)COCCOc1ccc(Cl)cc1 (stereo unspecified) | inactive: -5.16% | 
23 | CCOc1ccc(CNC(=O)C2CCN(c3nnc(C)c4c(C)n(-c5ccc(C)cc5)nc34)CC2)cc1 |  | active: 8.2 µM
24 | CC(C)NC(=O)C1C(c2ccc(C(F)(F)F)cc2)=Nc2ccccc2N1C(=O)c1ccco1 (stereo unspecified) |  | inconclusive [inhibitor, single point]
25 | CC(=O)c1ccc(NC(=O)C2CCC(CNS(=O)(=O)c3ccc4c(c3)CCCC(=O)N4)CC2)cc1 (stereo unspecified) |  | inconclusive [inhibitor, single point]
26 | Cc1ccc2nc(SCC(=O)NC3CCCCC3)nc(=O)n2c1 | inactive: -8.11% | 

Row | SMILES | activity change, negative = growth inhibition | Potency
27 | Cc1cc(Oc2ccc(-c3nnc(-c4ccccc4)o3)cc2[N+](=O)[O-])ccc1Cl |  | inconclusive [inhibitor, partial curve]
28 | O=c1[nH][nH]c2c1[C@H](c1ccc(Cl)cc1)O[C@H](C1CCCC1)C2 |  | inconclusive [inhibitor, single point]
29 | CC1(C)CC(=O)C(N=Nc2ccc(Cl)cc2)=C(O)C1 |  | inconclusive [inhibitor, partial curve, poor fit]
30 | COc1ccccc1N1CCN(C(=O)Cc2c(C(=O)O)c(C)cn2C)CC1 | inactive: -0.965% | 
31 | O=C(Nc1ccc(Br)cc1F)c1ccc2nsnc2c1 |  | inconclusive [inhibitor, partial curve, poor fit]
32 | COC(=O)c1cccc(NC(=S)Nc2ccc(Cl)c(Cl)c2)c1 | inactive: -2.16% | 
33 | O=c1c2ccccc2nc(-c2cccc(Cl)c2)n1O |  | inconclusive [inhibitor, single point]
34 | COc1cccc(S(=O)(=O)Nc2cccc(C(=O)N3CCCCCC3)c2)c1 | inactive: 2.24% | 
35 | Cc1ccccc1NC(=O)CCc1c(C)nn(-c2ccc(N3CCOCC3)nn2)c1C | inactive: 4.89% | 
36 | CC1CCN(C(=O)COC(=O)c2ccc3c(c2)OCCO3)CC1 | inactive: -2.79% | 
37 | O=C(NNC(=O)c1cccc2ccccc12)c1ccc2c(c1)OCO2 | inactive: 16.1% | 
38 | Cc1ccc(S(=O)(=O)c2nc(S(C)(=O)=O)sc2N2CC(C)OC(C)C2)cc1 (stereo unspecified) |  | inconclusive [inhibitor, partial curve]
39 | CCCCSCCCNC(=O)C1CCC(CNS(=O)(=O)c2ccccc2)CC1 (stereo unspecified) |  | active: 16.4 µM
40 | O=C(NCC(c1ccco1)N1CCc2ccccc21)C(=O)Nc1ccccc1F (stereo unspecified) |  | inconclusive [inhibitor, single point]
41 | Cn1c(=O)c2cc(NC(=O)NCc3ccc(Cl)cc3Cl)ccc2n1Cc1ccccc1 |  | inconclusive [inhibitor, single point]
42 | CCc1ccccc1NC(=O)C1CCCN(c2nnc(-n3c(C)ccc3C)s2)C1 (stereo unspecified) |  | active: 20.6 µM
43 | COc1ccc(C(=O)Nc2cccc(NC(=O)c3ccc(OC)cc3OC)n2)c(OC)c1 |  | active: 20.6 µM
44 | CCCCSc1nnc([C@H](CC(C)C)NC(=O)OC(C)(C)C)o1 |  | active: 18.4 µM
45 | CC(=O)c1ccc(NC(=O)c2cc(-c3ccc(Cl)c(Cl)c3)on2)cc1 | inactive: -5.35% | 
46 | c1ccc(-n2ncc3c(NC4CCCCCC4)ncnc32)cc1 |  | inconclusive [inhibitor, single point]
47 | O=C(OCCc1cc2ccccc2c(=O)o1)c1ccco1 | inactive: -7.19% | 
48 | Cc1nc(SCC(=O)N2CCCCCC2)c2c(=O)n(C)c(=O)n(CC(C)C)c2n1 |  | inconclusive [inhibitor, single point]
49 | Cc1ccc2c(c1)NC(=O)[C@@]1(C)[C@@H](c3ccccc3)[C@H]3COc4ccccc4[C@@H]3N1C2=O |  | inconclusive [inhibitor, single point]
50 | O=c1c2c([nH]c3ccccc13)C(=C1CCCC1)CC2 |  | active: 23.1 µM
51 | O=C(Nc1ncc(Cc2cccc(C(F)(F)F)c2)s1)c1ccc(-c2cccc([N+](=O)[O-])c2)o1 |  | active: 14.6 µM
52 | O=C(/C=C/c1ccco1)Nc1ccccc1C(=O)Nc1cccc(C(=O)O)c1 | inactive: 13.2% | 

Row | SMILES | activity change, negative = growth inhibition | Potency
53 | Cc1cc(C)c(C#N)c(Sc2nnnn2-c2ccccc2)n1 |  | inconclusive [inhibitor, partial curve, poor fit]
54 | C=CCNc1nnc(Cc2ccc(C(C)C)cc2)c(=O)[nH]1 |  | active: 7.31 µM
55 | O=C(COc1ccc(Br)cc1)NCCNC(=O)c1ccccn1 | inactive: -12.9% | 
56 | Cc1cc(N/N=C\c2ccc(Br)cc2)nc(-n2nc(C)cc2C)n1 |  | active: 1.64 µM
57 | Cc1cc(C)cc(N(CC(=O)Nc2ccc(-c3nc4ccc(C)cc4s3)cc2)S(C)(=O)=O)c1 |  | active: 23.1 µM
58 | CCOc1ccc(CCNC(=O)c2ccc3nc(CC)c(CC)nc3c2)cc1 |  | inconclusive [inhibitor, single point]
59 | CC(=O)N1CCN(S(=O)(=O)c2cccc(C(=O)N(Cc3ccccc3)c3cccc(C)c3)c2)CC1 |  | inconclusive [inhibitor, single point]
60 | O=C(Nc1ccc(F)cc1F)c1ccc2c(=O)n3c(nc2c1)CCCCC3 |  | inconclusive [inhibitor, single point]
61 | CC(Nc1ccc(Br)cc1)C(=O)N/N=C/c1ccccc1OCc1ccccc1 (stereo unspecified) |  | inconclusive [inhibitor, single point]
62 | CC(C)CCNC(=O)c1cc(-c2cccs2)nc2ccccc12 |  | inconclusive [inhibitor, single point]
63 | Cc1ccc2c(Cl)cc(Cl)c(OCC(=O)NC(C)(C)C)c2n1 |  | inconclusive [inhibitor, single point]
64 | C=CCc1cccc2cc(C(=O)OCC(=O)c3ccccc3)c(=O)oc12 | inactive: 1.64% | 
65 | Nc1ccc2nn(-c3ccc(Cl)cc3)nc2c1 |  | active: 6.51 µM
66 | CCCCNc1c(-c2ccc(OC)c(SC(C)CC)c2)nc2ccc(C)cn12 (stereo unspecified) |  | active: 18.4 µM
67 | Nc1sccc1C(=O)NC1CC1 | inactive: 10.4% | 
68 | Cc1cccc(C)c1NC(=S)NCCSc1ccc(Cl)cc1 |  | inconclusive [inhibitor, single point]
69 | COc1ccc(N2CC(C(=O)Nc3nnc(SCc4ccccn4)s3)CC2=O)cc1 (stereo unspecified) | inactive: -3.35% | 
70 | Cc1ccc(C)c(/C=C/C(=O)c2ccccc(=O)c2O)c1 |  | active: 10.3 µM
71 | CC[C@H](C)[C@H](NC(=O)OCc1ccccc1)C(=O)Nc1ccc(NC(C)=O)cc1 | inactive: -19.1% | 
72 | CCOc1ccc(CNC(=O)c2cnc3sc(N4CCC(C)CC4)nn3c2=O)cc1OC |  | inconclusive [inhibitor, single point]
73 | CC(C)n1c(SCC(=O)Nc2nc3ccccc3s2)nc2c1c(=O)n(C)c(=O)n2C |  | active: 16.4 µM
74 | CCCCCCCNC(=O)C1(CC2CC(c3ccc(Cl)cc3)=NO2)CCNCC1 (stereo unspecified) |  | active: 8.2 µM
75 | Cc1cc(C)c(C#N)c(N2CCN(Cc3ccc4c(c3)OCO4)CC2)n1 | inconclusive: -33.6% [inhibitor] | 
76 | CC(=O)c1c(C)[nH]c(C(=O)OCC(=O)NCCc2ccc(F)cc2)c1C |  | inconclusive [inhibitor, single point]

— PubChem BioAssay AID686979 (National Center for Advancing Translational Sciences (NCATS), 2013)
